{"source": "paper PMC11790949", "about": "“A multiplex method for rapidly identifying viral protease inhibitors” (Molecular Systems Biology, 2025)", "key": {"[1]": {"test_system": "BWCoV-SW1-3CL", "type": "cell-based, Beluga whale coronavirus SW1"}, "[2]": {"molecular_target": "HCoV-NL63-3CL (Human coronavirus NL63, UniProt P0C6X5)", "type": "cell-based"}, "[3]": {"molecular_target": "Bat-CoV-HKU9-3CL (Bat coronavirus HKU9, UniProt P0C6W5)", "type": "cell-based"}, "[4]": {"molecular_target": "Bat-CoV-HKU4-3CL (Bat coronavirus HKU4, UniProt P0C6W3)", "type": "cell-based"}, "[5]": {"molecular_target": "SARS-CoV-2-3CL (Severe acute respiratory syndrome coronavirus 2, UniProt P0DTD1)", "type": "cell-based"}, "[6]": {"molecular_target": "HCoV-HKU1-3CL (Human coronavirus HKU1, UniProt P0C6X2)", "type": "cell-based"}, "[7]": {"molecular_target": "MERS-CoV-3CL (Middle East respiratory syndrome-related coronavirus, UniProt K9N7C7)", "type": "cell-based"}, "[8]": {"molecular_target": "HCoV-229E-3CL (Human coronavirus 229E, UniProt P0C6X1)", "type": "cell-based"}, "[9]": {"test_system": "Bat-SV-CoVZC45-3CL", "type": "cell-based, Bat SL-CoVZC45"}, "[10]": {"molecular_target": "HAV-3C (Human hepatitis A virus genotype IB, UniProt P08617)", "type": "cell-based"}, "[11]": {"molecular_target": "HCoV-OC43-3CL (Human coronavirus OC43, UniProt P0C6X6)", "assay": "Yeast dose-response liquid growth assay (individual model)", "type": "cell-based", "conditions": "HCoV-OC43-3CL model"}, "[12]": {"test_system": "POWV-NS2B-GS-NS3", "type": "cell-based, tick-borne Powassan virus"}, "[13]": {"molecular_target": "Bat-SL-CoVZC45-PLP (Bat SARS-like coronavirus, UniProt A0A2R3SV02)", "type": "cell-based"}, "[14]": {"molecular_target": "HCoV-NL63-PLP2 (Human coronavirus NL63, UniProt P0C6X5)", "assay": "Yeast dose-response liquid growth assay (individual model)", "type": "cell-based"}, "[15]": {"molecular_target": "SARS-CoV-2 PLP (Severe acute respiratory syndrome coronavirus 2, UniProt P0DTD1)", "type": "cell-based"}, "[16]": {"molecular_target": "MERS-CoV-PLP (Middle East respiratory syndrome-related coronavirus, UniProt K9N7C7)", "type": "cell-based"}}, "data": [{"smiles": "CCc1cc(=O)oc2cc(OC(=O)c3ccco3)ccc12", "note": "[CB6728297]", "values": [{"measurement": "Max relative growth", "setting": "[1]", "result": 5.597}, {"measurement": "Max relative growth", "setting": "[2]", "result": 3.578}, {"measurement": "Max relative growth", "setting": "[3]", "result": 3.522}, {"measurement": "Max relative growth", "setting": "[4]", "result": 1.746}, {"measurement": "Max relative growth", "setting": "[5]", "result": 4.207}, {"measurement": "Max relative growth", "setting": "[6]", "result": 6.457}, {"measurement": "Max relative growth", "setting": "[7]", "result": 1.327}, {"measurement": "Max relative growth", "setting": "[8]", "result": 2.144}, {"measurement": "Max relative growth", "setting": "[9]", "result": 2.036}, {"measurement": "Max relative growth", "setting": "[10]", "result": 3.798}]}, {"smiles": "O=C(Oc1ccc2ccc(=O)oc2c1)c1cccs1", "note": "[CB6762077]", "values": [{"measurement": "Max relative growth", "setting": "[3]", "result": 2.732}, {"measurement": "Max relative growth", "setting": "[4]", "result": 1.561}, {"measurement": "Max relative growth", "setting": "[5]", "result": 2.949}, {"measurement": "Max relative growth", "setting": "[8]", "result": 1.739}, {"measurement": "Max relative growth", "setting": "[9]", "result": 1.8704}]}, {"smiles": "O=C(Oc1ccc2ccc(=O)oc2c1)c1ccco1", "note": "[CB6778425]", "values": [{"measurement": "Max relative growth", "setting": "[1]", "result": 4.474}, {"measurement": "Max relative growth", "setting": "[2]", "result": 1.41}, {"measurement": "Max relative growth", "setting": "[3]", "result": 4.722}, {"measurement": "Max relative growth", "setting": "[4]", "result": 2.045}, {"measurement": "Max relative growth", "setting": "[5]", "result": 3.098}, {"measurement": "Max relative growth", "setting": "[6]", "result": 5.701}, {"measurement": "Max relative growth", "setting": "[7]", "result": 1.396}, {"measurement": "Max relative growth", "setting": "[8]", "result": 3.883}, {"measurement": "Max relative growth", "setting": "[9]", "result": 2.0048}, {"measurement": "Max relative growth", "setting": "[10]", "result": 1.965}]}, {"smiles": "CCOC(=O)C(=O)Cc1nc2ccccc2s1", "note": "[NSC38490]", "values": [{"measurement": "Inhibitor / Validation (true or false inhibitor in individual yeast model)", "setting": "[7]", "result": "FALSE"}, {"measurement": "Max relative growth", "setting": "[7]", "result": 0.1943}]}, {"smiles": "c1ccc2c(c1)-c1cccc3cncc-2c13", "note": "[NSC60419]", "values": [{"measurement": "Inhibitor / Validation (true or false inhibitor in individual yeast model)", "setting": "[11]", "result": "FALSE"}]}, {"smiles": "CCSc1nc(=S)cc(C)[nH]1", "note": "[NSC67307]", "values": [{"measurement": "Inhibitor / Validation (true or false inhibitor in individual yeast model)", "setting": "[7]", "result": "FALSE"}, {"measurement": "Max relative growth", "setting": "[7]", "result": 0.2492}]}, {"smiles": "N#Cc1ccc(NC2c3ccccc3CC2O)cc1", "note": "(stereo not drawn) [NSC69421]", "values": [{"measurement": "Inhibitor / Validation (true or false inhibitor in individual yeast model)", "setting": "[11]", "result": "FALSE"}]}, {"smiles": "Cc1cc2c(cc1C)N(C(=O)CCl)CC(=O)N2", "note": "[NSC138389]", "values": [{"measurement": "Inhibitor / Validation (true or false inhibitor in individual yeast model)", "setting": "[12]", "result": "FALSE"}, {"measurement": "Max relative growth", "setting": "[12]", "result": 0.6792}, {"measurement": "Inhibitor / Validation (true or false inhibitor in individual yeast model)", "setting": "[4]", "result": "FALSE"}, {"measurement": "Max relative growth", "setting": "[4]", "result": 0.5541}, {"measurement": "Inhibitor / Validation (true or false inhibitor in individual yeast model)", "setting": "[5]", "result": "FALSE"}, {"measurement": "Max relative growth", "setting": "[5]", "result": 0.3944}, {"measurement": "Inhibitor / Validation (true or false inhibitor in individual yeast model)", "setting": "[9]", "result": "FALSE"}, {"measurement": "Max relative growth", "setting": "[9]", "result": 0.3635}, {"measurement": "Max relative growth", "setting": "[13]", "result": 1.762}]}, {"smiles": "CN(C(=O)c1ccncc1)c1ccccc1", "note": "[NSC204976]", "values": [{"measurement": "Inhibitor / Validation (true or false inhibitor in individual yeast model)", "setting": "[7]", "result": "FALSE"}, {"measurement": "Max relative growth", "setting": "[7]", "result": 0.8942}]}, {"smiles": "S=c1[nH]c2ccccc2n2cccc12", "note": "[NSC246415]", "values": [{"measurement": "Inhibitor / Validation (true or false inhibitor in individual yeast model)", "setting": "[4]", "result": "FALSE"}, {"measurement": "Max relative growth", "setting": "[4]", "result": 0.5477}]}, {"smiles": "CCOC(=O)c1c(NC(=S)NC)sc2c1CCCC2", "note": "[NSC280492]", "values": [{"measurement": "Inhibitor / Validation (true or false inhibitor in individual yeast model)", "setting": "[4]", "result": "FALSE"}, {"measurement": "Max relative growth", "setting": "[4]", "result": 1.034}]}, {"smiles": "CNC(=O)Oc1c(C)[nH]ccc1=O", "note": "[NSC287495]", "values": [{"measurement": "Inhibitor / Validation (true or false inhibitor in individual yeast model)", "setting": "[14]", "result": "FALSE"}, {"measurement": "Inhibitor / Validation (true or false inhibitor in individual yeast model)", "setting": "[15]", "result": "FALSE"}]}, {"smiles": "CCOC(=O)Nc1ccc2nc(-c3cscn3)[nH]c2c1", "note": "[NSC299514]", "values": [{"measurement": "Inhibitor / Validation (true or false inhibitor in individual yeast model)", "setting": "[11]", "result": "FALSE"}]}, {"smiles": "NC(N)=NC(=S)Nc1ccc(Cl)cc1", "note": "[NSC403374]", "values": [{"measurement": "Max relative growth", "setting": "[5]", "result": 1.288}, {"measurement": "Max relative growth", "setting": "[9]", "result": 1.334}]}, {"smiles": "Cc1cc(N(C)C)ccc1N=Nc1ccc2ncccc2c1", "note": "[NSC680516]", "values": [{"measurement": "Inhibitor / Validation (true or false inhibitor in individual yeast model)", "setting": "[16]", "result": "FALSE"}, {"measurement": "Max relative growth", "setting": "[16]", "result": 0.6371}, {"measurement": "Inhibitor / Validation (true or false inhibitor in individual yeast model)", "setting": "[14]", "result": "FALSE"}]}]}
